# Test results reported in PMC4336329 (PLoS ONE, 2015).
# Screen size: about 310,000 compounds; about 2,200 (0.71%) showed an effect of 50% or more. Effects have a minus sign here. The list shows a part of the results.
# Target: human ether-à-go-go-related gene (hERG) potassium channel (human, UniProt Q12809)
# Assay: primary screen, population patch clamp on CHO cells stably expressing hERG
# Sequence of human ether-à-go-go-related gene (hERG) potassium channel (Q12809 whole entry, looked up): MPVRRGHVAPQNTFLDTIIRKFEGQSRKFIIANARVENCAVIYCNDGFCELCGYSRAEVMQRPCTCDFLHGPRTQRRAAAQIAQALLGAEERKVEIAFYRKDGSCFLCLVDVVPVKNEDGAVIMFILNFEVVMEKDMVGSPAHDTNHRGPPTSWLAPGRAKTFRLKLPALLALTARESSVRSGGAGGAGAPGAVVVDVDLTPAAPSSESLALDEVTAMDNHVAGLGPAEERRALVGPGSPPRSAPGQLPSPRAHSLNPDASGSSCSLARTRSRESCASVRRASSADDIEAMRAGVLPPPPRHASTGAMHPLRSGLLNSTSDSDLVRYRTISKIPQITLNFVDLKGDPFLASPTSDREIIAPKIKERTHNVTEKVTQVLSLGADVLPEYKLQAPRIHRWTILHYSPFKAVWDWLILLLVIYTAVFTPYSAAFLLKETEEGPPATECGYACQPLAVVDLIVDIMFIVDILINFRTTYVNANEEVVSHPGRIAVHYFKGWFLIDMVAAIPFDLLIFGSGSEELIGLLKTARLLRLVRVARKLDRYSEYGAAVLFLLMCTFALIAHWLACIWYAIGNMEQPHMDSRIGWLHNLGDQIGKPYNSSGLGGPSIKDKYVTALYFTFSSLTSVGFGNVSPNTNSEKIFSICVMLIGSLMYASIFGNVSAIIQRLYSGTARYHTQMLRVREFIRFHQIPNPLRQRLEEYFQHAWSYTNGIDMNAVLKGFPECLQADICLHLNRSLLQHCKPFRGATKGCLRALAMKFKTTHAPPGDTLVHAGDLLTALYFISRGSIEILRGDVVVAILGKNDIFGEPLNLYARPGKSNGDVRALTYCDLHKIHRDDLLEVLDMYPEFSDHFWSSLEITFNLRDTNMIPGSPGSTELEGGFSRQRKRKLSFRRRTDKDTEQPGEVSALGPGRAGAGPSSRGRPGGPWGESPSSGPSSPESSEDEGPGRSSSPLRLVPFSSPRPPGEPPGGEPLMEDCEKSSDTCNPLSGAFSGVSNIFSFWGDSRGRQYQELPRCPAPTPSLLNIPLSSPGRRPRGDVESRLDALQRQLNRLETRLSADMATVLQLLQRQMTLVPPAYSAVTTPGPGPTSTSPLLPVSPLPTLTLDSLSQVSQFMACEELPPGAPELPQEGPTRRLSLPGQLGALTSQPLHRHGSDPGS
row,Compound,"hERG current change (%, negative = inhibition) at 1uM [%]"
1,Cc1n[nH]c(C)c1N1C(=O)c2cccc3c(N4CCCCCC4)ccc(c23)C1=O,8.88
2,O=C1CC(N2CCC(n3c(=O)[nH]c4ccccc43)CC2)C(=O)N1c1ccc(F)cc1 (centres unmarked),7.15
3,Cc1ccccc1NC1(C#N)C(=O)Nc2ccccc21 (centres unmarked),13.4
4,Cc1sc(NC(=O)CSc2nnnn2C2CCCCC2)c(C#N)c1C,6.31
5,COc1ccc(C2=Nn3c(nnc3-c3ccncc3)SC2)cc1OC,-40.3
6,CC(C)(C)c1ccc(C(=O)Nc2ccc(Oc3cccnc3)nc2)cc1,-3.27
7,COc1ccc(/C=C2\CCCC3C2=NN(C(=O)CSc2ncn[nH]2)C3c2ccc(OC)cc2)cc1 (centres unmarked),16.5
8,COc1ccc(CC(=O)N/N=C(\C)c2cccnc2)cc1OC,3.32
9,COc1cccc(N2CC(C(=O)Nc3nnc(SCc4ccccn4)s3)CC2=O)c1 (centres unmarked),9.96
10,CCN(CC)S(=O)(=O)c1cc(NS(=O)(=O)c2ccc(Cl)c(C(=O)O)c2)ccc1C,7.28
11,O=C(CCN1C(=O)C2CCCCC2C1=O)Nc1ccc(OC(F)F)cc1 (centres unmarked),7.34
12,O=C(N/N=C/c1cc2c(c([N+](=O)[O-])c1)OCO2)c1ccncc1,13.8
13,N#Cc1c(-c2cccs2)cc(-c2cccs2)[nH]c1=O,10.5
14,Cc1ccc(C)c(NC(=S)c2nc3ccccc3s2)c1,14.5
15,Cc1ccc(S(=O)(=O)N(CCCN2CCCC2=O)Cc2cc3c(C)ccc(C)c3[nH]c2=O)cc1,-19.9
16,COC(=O)C1Cc2ccccc2CN1S(=O)(=O)c1ccc(C)cc1 (centres unmarked),15.7
17,CCS(=O)(=O)NCC(c1ccco1)N1CCN(c2ccccc2F)CC1 (centres unmarked),0.269
18,CN1CCN(C(=O)c2ccc(C(C)(C)C)cc2)CC1,-2.13
19,COC(=O)C(=CC(=CN(C)C)C=C(C(=O)OC)C(=O)OC)C(=O)OC,15.4

row,Compound,"hERG current change (%, negative = inhibition) at 1uM [%]"
1,CCOC(=O)C(=O)Nc1ccc(Oc2ccccc2)cc1,9.34
2,CC(=O)Nc1cccc(NC(=O)CSc2nnc(Cc3cccn3C)n2-c2ccc(C)cc2)c1,6.43
3,Cc1ccc(NC(=O)c2ccc3c(c2)C(=O)N(CC2CCCO2)C3=O)cc1C (centres unmarked),2.94
4,CN(c1ccccc1C(=O)NC1CC2CCC1C2)S(=O)(=O)c1ccccc1 (centres unmarked),4.75
5,COc1cc(OC)c2c(c1)OCC1CON(C)C21 (centres unmarked),3.38
6,CC(C)c1ccc(S(=O)(=O)c2cnc(=S)[nH]c2N)cc1,9.45
7,O=[N+]([O-])c1ccc2cn[nH]c2c1,14.4
8,COC(=O)CSc1nnc(-c2ccc3c(c2)OCO3)n1C,21.3
9,N#Cc1c(NC(=O)C2CCCO2)sc2c1CCCCCC2 (centres unmarked),7.08
10,COc1ccc(-n2cnnc2SCC(=O)N2CCN(S(=O)(=O)c3ccccc3)CC2)cc1,1.1
11,C/C(=N\Nc1ccc2nncn2n1)c1ccc(Cl)s1,-1.89
12,CC(CC(=O)NCc1ccc(F)cc1)c1ccccc1 (centres unmarked),11.1
13,O=C(CS(=O)(=O)Cc1ccccc1)Nc1ccc(Br)cc1F,11.9
14,Oc1ccccc1-c1cc(-c2cccc(F)c2)n[nH]1,-4.21
15,Brc1ccc(CN2CCSCC2)cc1,-30.8
16,COc1ccc2c(CC(=O)Nc3ccc(OC)c(NS(=O)(=O)c4ccc(F)cc4)c3)coc2c1,9.87
17,CC(C)CCOc1ccc(NC(=O)C2OC3OC(C)(C)OC3C3OC(C)(C)OC23)cc1 (centres unmarked),14.6
18,CCc1cc2c(=O)c(-c3nc4ccccc4n3C)c(CCCC(=O)O)oc2cc1OC(=O)C(C)(C)C,14.8
19,CN(CC(=O)Nc1ccc(F)cc1)C(=O)COC(=O)Cc1c(F)cccc1Cl,6.13

row,Compound,"hERG current change (%, negative = inhibition) at 1uM [%]"
1,COC(=O)[C@@H](NC(=O)c1ccc(OC2CCN(Cc3ccccn3)CC2)cc1)C(C)C,4.8
2,COc1ccc(/C=C/C(=O)NCCc2ccc(S(N)(=O)=O)cc2)cc1,12.5
3,CC(Cl)C(=O)c1c[nH]c2ccccc12 (centres unmarked),16.5
4,CC(=O)Nc1ccc(NC(=O)CSc2nc(=O)n3cccc(C)c3n2)cc1,10.9
5,Cc1ccc(S(=O)(=O)NC(=O)NCc2ccc(Cl)cc2)cc1,10.1
6,CC(C)(C)n1nc2c(c1NC(=O)c1ccc(S(=O)(=O)N3CCCC3)cc1)CS(=O)C2 (centres unmarked),11
7,Cc1onc(-c2ccc(Cl)cc2)c1-c1ccnc(SCC(=O)Nc2cc(Cl)cc(Cl)c2)n1,6.83
8,CC(=O)Nc1sc2c(c1C(c1cccc(Cl)c1)N1CCN(CCO)CC1)CCCC2 (centres unmarked),-3.58
9,CCc1ccc(Nc2ccc(S(=O)(=O)N3CCOCC3)cc2[N+](=O)[O-])cc1,1.27
10,COc1ccc(CCn2c(C)cc(C(=O)CSc3nnnn3-c3ccccc3)c2C)cc1OC,2.85
11,Cc1cc2c(SCC(=O)NC3CCCC3)ncnc2s1,6.83
12,Cc1ccc(C(=O)N(Cc2nc3ccccc3c(=O)[nH]2)C2CCCC2)cc1,13.2
13,COc1cccc(-c2c(-c3cc(OC)cc(OC)c3)n(C)c3ccc(-c4cnc(OC)nc4)cc23)c1,14.5
14,Brc1ccc(-c2nnc3ccc(Nc4ccccc4)nn23)cc1,15.3
15,COc1ccc(/C=N\NC(=O)C2CCCC2)cc1Br,16.6
16,COc1cc(CNCc2cccnc2)ccc1OCc1ccccc1.Cl,-1.31
17,CCCC(=O)NCc1nc2ccccc2n1CC(=O)c1ccccc1,3.78
18,COc1cccc(N2CCN(C(=S)Nc3ccccc3OC)CC2)c1,14.2
